From the RNAGym collection of RNA variant scans (doi:10.7554/elife.90254) come the findings set out here.

Read counts are not given, so values of variants with three or more changes are uncertain.

B1: LINE1-mini (parent)
chain: GGCAGAGCUCAACACAGCGUGGCAAAGUGGCUGUGGCUAGACUGCC

Variants of B1 are the subject of this data set. Put plainly: self-cleavage, relative activity (ratio to wild type); higher = more cleavage; in vitro, sequencing; the parent is a self-cleaving ribozyme.
As for U20C A25U U28A, the self-cleavage came out at 0.37.
In the case of G19U G36A C46U it was 0.05; in that of G19U G35A G40A, 0.04; in that of G19U U20A G30C U34A, 0.05.
For the variant U20G A26C G27C A41C, the self-cleavage turned out to be 0.02.
On to G19U G44C C45A, for which the self-cleavage stood at 0.1.
G19U U20C C31U C46G: the self-cleavage was 0.07.
Take U20C U28G G30A C31G A39C: the self-cleavage stood at 0.01.
Consider U20A G21C G29U, for which the self-cleavage came out at 0.32.
For U20A G22C G29U, the self-cleavage came out at 0.4.
In the case of U20A G22C G29C, the self-cleavage was found to be 0.24.
For the variant U20A A26C G33U C37U, the self-cleavage was 0.05.
Consider G19U G27A G33U C46U, for which the self-cleavage came to 0.25.
As to U20A U32A U38G G44U, the self-cleavage came out at 0.02.
The figure for U20G A39G A41C is 0; for G19U C23A A24C C37G U38C it is 0; for U20A U28G C46U it is 1.78.
In the case of G19U G33A A39U, the self-cleavage is 0.06.
On to U20A A24G A39G, for which the self-cleavage was 0.02.
U20C A24U U43G G44A: the self-cleavage turned out to be 0.02.
Consider G19U U28G C31U, for which the self-cleavage turned out to be 0.61.
Regarding U20G A25G G35C C42A, the self-cleavage is 0.
G19U G44C C46U: the self-cleavage was 0.06.
U20C U28G C42U: the self-cleavage amounted to 0.05.
Regarding G19U A24G U32G, the self-cleavage worked out at 0.1.
With U20C A25U A39U, the self-cleavage amounted to 0.49.
As to U20C G33A C46A, the self-cleavage worked out at 0.06.
Turning to G19U G30C U34C G40C, the self-cleavage was determined as 0.04.
In the case of G19U A26U C31U it was 0.3; in that of G19U A24U A26C A39U, 0.18; in that of G19U G33U G40U, 0.04.
On to U20C G40C U43G, for which the self-cleavage worked out at 0.03.
As for G19U A24C C31U, the self-cleavage was found to be 0.52.
For G19U G22A G44A, the self-cleavage came out at 0.22.
With U20A G40U C45U, the self-cleavage was 0.07.
In the case of U20C A24U G27C, the self-cleavage turned out to be 0.18.
The figure for U20G C23U C31U is 0.13; for U20A C23G G27U it is 1.5; for U20A C37U C42U G44C it is 0.05.
As for U20C G36U C45G, the self-cleavage was 0.32.
Take G19U G21C G30A G33U: the self-cleavage is 0.04.
Turning to G19U G21U C31A, the self-cleavage was 0.05.
Turning to U20C C42U C45G, the self-cleavage was determined as 0.04.
Turning to U20A U34A G36A, the self-cleavage amounted to 0.05.
Consider G19U G29U C46A, for which the self-cleavage stood at 0.36.
U20G A24U U32G: the self-cleavage was found to be 0.01.
The figure for U20G A41G G44A is 0; for U20A A39U A41U it is 0.24.
Regarding U20A G22U U34G, the self-cleavage was found to be 0.18.
As for G19U C31G G36A, the self-cleavage stood at 0.07.
As to G19U U28A G33A A39U G44C, the self-cleavage came to 0.05.
As to U20A G21C G33C U43G, the self-cleavage is 0.02.
In the case of U20C G27C C31G C46G, the self-cleavage is 0.01.
For the variant G19U C23A G30U G33C C42A, the self-cleavage was found to be 0.06.
Regarding G19U G21U G35A G44U, the self-cleavage amounted to 0.01.
As to U20A C23G A24G U43A, the self-cleavage is 0.09.
In the case of U20A U34C A39G it was 0.02; in that of U20C G22A A25G G36U, 0.03; in that of U20A G30U C42A, 0.78.
Turning to U20A G21U G35U C46U, the self-cleavage turned out to be 0.04.
The figure for U20A C31U G33A C46U is 0.03; for G19U G35U A41C it is 0.02.
U20A C23A A24G C46A: the self-cleavage was 0.48.
Regarding G19U G30A C31U A39C, the self-cleavage worked out at 0.03.
In the case of U20G C23G U28A G33A it was 0.09; in that of U20A G27A C45U, 2.55.
Regarding G19U G30C C31G, the self-cleavage amounted to 0.03.
The figure for G19U U32G G40A C45A is 0.02.
In the case of U20A G21U G35A it was 0.1; in that of U20A G29U U34A, 0.11; in that of G19U U20A G36U, 0.03.
As for U20A G27C A41C, the self-cleavage is 0.04.
In the case of G19U U34C G35A C37U it was 0.02; in that of U20G A26G A41G C45U, 0.6; in that of U20C C31A U32G, 0.02.
Regarding G19U G40U C46G, the self-cleavage came to 0.46.
Turning to U20G G21A A39G C46A, the self-cleavage came out at 0.02.
Turning to G19U A41C C42G, the self-cleavage is 0.04.
In the case of G19U C37U U38C C45A it was 0.02; in that of U20C G40A C46A, 0.33.
For G19U G21A G40U, the self-cleavage was determined as 0.11.
Consider U20C G40U A41U, for which the self-cleavage is 0.3.
Consider U20A G40A U43A, for which the self-cleavage stood at 0.05.
As to U20A C37A U38A A41G C42G, the self-cleavage was found to be 0.04.
Consider G19U G21A A25U C46G, for which the self-cleavage amounted to 0.12.
Turning to U20G C37U U38A, the self-cleavage amounted to 0.04.
In the case of G19U U20G C23U G40U it was 0.09; in that of U20A C23A A24C G29U G44U, 0.21.
As for U20C A24G A26U G33C U34G, the self-cleavage worked out at 0.07.
With U20A G29U C46U, the self-cleavage turned out to be 0.21.
For U20A G29U C46A, the self-cleavage came out at 0.45.
Consider U20C U28C U38A, for which the self-cleavage amounted to 0.28.
Regarding U20G A26C C31G U32C, the self-cleavage is 0.3.
The figure for G19U G21U U38C is 0.02.
In the case of U20G A25U C31A C46A, the self-cleavage was found to be 0.04.
G19U C31U G33U A41C: the self-cleavage is 0.06.
Consider G19U U28A G36U A39C C42A, for which the self-cleavage came to 0.02.
As for U20C U32C C42U, the self-cleavage was 0.08.
With U20A G22A U28G U34C, the self-cleavage is 0.1.
Take U20A U28C C42U: the self-cleavage amounted to 0.07.
For G19U U32A G35A G36A G40C C46A, the self-cleavage stood at 0.
The figure for G19C U32G U34A is 0.03.
The figure for U20C G22C C31U is 1.14.
Take U20A U32G U38A: the self-cleavage was 0.07.
In the case of G19U G27U G35U, the self-cleavage is 0.09.
With U20C C31U G35A, the self-cleavage worked out at 0.03.
For the variant G19U G22U G30U U38A G40U, the self-cleavage was found to be 0.14.
As for U20A G22U G30A, the self-cleavage turned out to be 1.98.
Regarding U20A A24U G36C, the self-cleavage worked out at 0.04.
Regarding U20G A25C G27A, the self-cleavage is 1.35.
As to G19U A24U C45U, the self-cleavage was found to be 1.04.
The figure for U20A C23A U34G is 0.54; for U20A G22U C23U G35U it is 0.1; for G19U A25G A39G it is 0.01.
In the case of U20G C37U A39G it was 0.02; in that of U20G G21C A24C G29A G33C C46G, 0.03.
For the variant U20G A24U U34A, the self-cleavage was determined as 0.05.
As for G19U G40A A41C, the self-cleavage worked out at 0.02.
Regarding G19U G33C U34A, the self-cleavage is 0.01.
The figure for G19U A41C U43G is 0.01; for U20G A25C C46U it is 0.
The figure for U20A G22A G33A C45G is 0.04; for U20C C23U G27C G36A A41C C42G it is 0.02.
The figure for G19U G27C A41C is 0.03; for U20G G21A C31G G33C G36C A41U it is 0.03.
Take U20A G27A G30A: the self-cleavage is 0.87.
With G19U G27A C37A U38C C45A, the self-cleavage stood at 0.01.
The figure for U20A G36C C37U C45A is 0.03; for U20C A25U G33U it is 0.4.
On to U20G A26C G33A, for which the self-cleavage is 0.33.
Regarding U20A G30A U38A G44C, the self-cleavage turned out to be 0.26.
On to U20C G21A A41C, for which the self-cleavage was found to be 0.02.
U20G G21A G33A: the self-cleavage is 0.01.
For the variant G19U U20G A24G A39G G44A, the self-cleavage is 0.03.
For U20A G36A G44A, the self-cleavage is 0.05.
In the case of G19U U32G U43A, the self-cleavage was determined as 0.05.
Take U20A G21C C23A A26G G30U U38A: the self-cleavage came to 0.1.
In the case of G19U G22C U34C A41U, the self-cleavage is 0.05.
The figure for G19U U32C G35C C37U is 0.01.
For the variant G19U U32C G35A G36A, the self-cleavage stood at 0.01.
In the case of U20A U32C U34G it was 0.02; in that of G19U U20A U43A, 0.02.
On to U20C A25G G27A U28A U34G C45A, for which the self-cleavage was found to be 0.13.
The figure for U20A G21U A26C is 2.23; for U20G A25G G30U it is 0.65; for G19U A24C U34A U43A it is 0.03.
Take G19U G27C C42U U43A: the self-cleavage worked out at 0.05.
On to U20C G29C U34A, for which the self-cleavage came out at 0.14.
G19U G21C G22A G40U C45G: the self-cleavage worked out at 0.05.
In the case of U20C G30C C31A it was 0.81; in that of U20C A24G U28A U32G, 0.2.
For the variant G19U G27U U38C, the self-cleavage amounted to 0.15.
U20C G21A A26C G36A: the self-cleavage was 0.03.
G19U G35A C42U: the self-cleavage turned out to be 0.07.
In the case of U20C G30U C37U C46A it was 0.02; in that of G19U G22C C42A, 0.15; in that of U20C C23A C45U, 1.03.
Turning to U20G A25G C31A G36C, the self-cleavage turned out to be 0.08.
For G19U G22A C31A U32G C45A, the self-cleavage is 0.04.
On to U20A A26G G33U U34C C37A, for which the self-cleavage turned out to be 0.02.
Consider G19U G30C U43G, for which the self-cleavage amounted to 0.
On to U20G C23G A25G U28C A41G C46A, for which the self-cleavage turned out to be 0.07.
Consider U20A G30C U43A, for which the self-cleavage came out at 0.07.
Regarding U20G A24G G40A C45A, the self-cleavage amounted to 0.
As for U20A G22A U28G, the self-cleavage came to 0.51.
In the case of U20A G29U U38A C45U it was 0.06; in that of U20G C23A G27U, 0.23.
